Data on three compounds can be found in publication PMC11126936, “Reactivating Hippo by drug compounds to suppress gastric cancer and enhance chemotherapy sensitivity” (The Journal of Biological Chemistry, 2024).

The test system of one test is 11 different GC cells. The experiment in a line: Cisplatin cell viability in 11 GC cell lines. The conditions noted are these: read-out: IC50, cisplatin-resistant GC cell lines; cell lines with lower pMST1/2 such as AGS, AZ521, MKN-28.
Test [1] is described as follows: Second-round AlphaScreen false-positive control (Table S4). The following applies: 2nd round validation screen, STRN3-MST2; disruption of protein-bead interactions. A general note: Alpha assays give light when donor and acceptor beads are brought close together.
Test [2] has as its system seven GC cell lines (MKN-28, NUGC-4, SNU-216, MGC-803, AGS, MKN-45, HGC-27). Description: Cell viability of seven GC cell lines. The conditions noted are these: Homo sapiens, read-out: IC50 values, seven GC cell lines.

In general, IC50 refers to the concentration at which inhibition is half-maximal. As for `N.N.[Cl][Pt][Cl]` [cisplatin], the IC50 in the test with 11 different GC cells is more than 20000 nM.

`CN1CCCN(C(=O)c2cccc(-c3ccc(C=C4C(=O)Nc5ccc(Cl)cc54)o3)c2)CC1` [CX, CX-6258]: in test [1], the “False positive rate (%)” value amounted to 18.0915%. As to `CCN(CC)C(=S)SSC(=S)N(CC)CC` [DSF, disulfiram], the concentration for half-maximal inhibition (IC50) in test [2] lay within 40 to 190 nM.
